Experimental data published in PMC4242493.
Some of the results follow. The list includes weakly bound sequences.

Target: MaxL homodimer (UniProt P61244)
Test: universal protein-binding microarray (PBM)
Conditions: PBS-based mixture, 10 nM His-tagged protein dimer, 2% milk, 200 ng/uL BSA, 50 ng/uL salmon testes DNA, 0.02% TX-100; detection with Alexa 488 anti-His …; high values mean tight binding; most listed sequences are background and not binding sites; double strand, one strand shown

Sequence of UniProt P61244 (P61244 whole entry): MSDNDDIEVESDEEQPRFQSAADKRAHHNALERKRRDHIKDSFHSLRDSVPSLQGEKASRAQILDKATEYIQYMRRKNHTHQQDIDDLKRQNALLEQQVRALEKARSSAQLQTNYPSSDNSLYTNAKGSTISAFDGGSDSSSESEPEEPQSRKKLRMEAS

| Sequence | binding signal (normalized occupancy) |
| --- | --- |
| CCTGACCC | 0.072 |
| ATAAACAA | 0.0758 |
| CTATGGTA | 0.0763 |
| GTCGGGTA | 0.0755 |
| GATTTGGC | 0.0793 |
| ATTCACTC | 0.0752 |
| GATACTAC | 0.0771 |
| AGTCTTGG | 0.0692 |
| AGGGGGTG | 0.0802 |
| ATTCGCGC | 0.0824 |
| AGAATCAT | 0.0787 |
| AGTCATGC | 0.096 |
| CGGTCCAG | 0.0682 |
| TACATCAA | 0.081 |
| AAGGATGT | 0.0722 |
| CTACCCAA | 0.0753 |
| GCCTGGAC | 0.0739 |
| GGTCGGAA | 0.0706 |
| AAAGGGTC | 0.0759 |
| CAATGGCG | 0.0709 |
| AAGAAACT | 0.0734 |
| AGACAGCT | 0.0701 |

| Sequence | binding signal (normalized occupancy) |
| --- | --- |
| CCTGTCAA | 0.0718 |
| CAGAAAAC | 0.0748 |
| CCATTCCA | 0.0807 |
| AGACGGTC | 0.0743 |
| ACGCTTGG | 0.0747 |
| CAAATACA | 0.0845 |
| CCTCATAC | 0.0793 |
| CAGCTGCG | 0.0693 |
| ATCTTTTA | 0.0775 |
| ATGACCTA | 0.0878 |
| ACCATGTA | 0.0876 |
| GGGTACCA | 0.0719 |
| GCCGACGA | 0.0731 |
| GATTTTGA | 0.0757 |
| AATATTGT | 0.0757 |
| AGCACAGC | 0.0685 |
| AAGACATT | 0.0789 |
| CCTTCTAG | 0.0711 |
| CAGCCCTA | 0.0758 |
| CGATTAGC | 0.071 |
| ATGCGCAC | 0.0828 |
| AAGGTCAT | 0.0756 |

| Sequence | binding signal (normalized occupancy) |
| --- | --- |
| CGTGTAAA | 0.0895 |
| CTGGTCCC | 0.0738 |
| CTAACGAC | 0.0717 |
| CTACCGGC | 0.0672 |
| AAGTGTTA | 0.078 |
| TCGCAGAA | 0.07 |
| ACTAAGTA | 0.0741 |
| GGCCTTGA | 0.0739 |
| AGGCTGAA | 0.0687 |
| CCGGGTCC | 0.0723 |
| CGCATAGA | 0.0778 |
| GTTCAGGA | 0.0725 |
| CTTTTACC | 0.0701 |
| AATAATCG | 0.0787 |
| GAGAACGC | 0.0762 |
| GCACAACA | 0.0766 |
| ATTATCAG | 0.0855 |
| AGTAGTGC | 0.0739 |
| ACTAATTA | 0.0771 |
| AGTCCTAC | 0.0718 |
| TACCGACA | 0.0767 |
| GTCCGTTA | 0.076 |

| Sequence | binding signal (normalized occupancy) |
| --- | --- |
| TACCTATA | 0.0788 |
| GATAAGAC | 0.0751 |
| CGAATACC | 0.0756 |
| ATAAAGCC | 0.0798 |
| CACCATCC | 0.0824 |
| TCCGCCGA | 0.0646 |
| AGAAACAG | 0.0766 |
| ACCCAGCA | 0.0788 |
| ATTCAGAA | 0.0712 |
| CGATCGGA | 0.07 |
| GCACGTAC | 0.0883 |
| ATCGCCCC | 0.0783 |
| ACAACCAC | 0.0821 |
| GGCGCATA | 0.0798 |
| TCAAACCA | 0.078 |
| AAGGCACG | 0.0868 |
| AACGTACG | 0.0723 |
| GAAAACCA | 0.0763 |
| CGCCATGA | 0.0842 |
| ATCGTGCA | 0.0816 |
